# Laboratory results from ChEMBL document CHEMBL5606460, “ASAP - DENV-2 NS2B-NS3 protease fluorescence single point” (2024).
# The campaign covered roughly 2,000 compounds. About 110 (5.5%) showed an effect of 50% or more. The list shows a part of the results.
# Biological target: Genome polyprotein (dengue virus type 2) (UniProt P29990)
# [1] = Thailand/16681/1984, Concentration 25.0 uM, Number of replicates 1.0
smiles,measurement,setting,value
O=C(c1cccn2ccnc12)N1CC[C@H](c2c[nH]c3ccccc23)C1,inhibition,"Thailand/16681/1984, Concentration 49.5 uM, Number of replicates 2.0, Standard deviation 0.46479721554577685 %",-0.016%
same,inhibition,"Thailand/16681/1984, Concentration 99.01 uM, Number of replicates 2.0, Standard deviation 0.206818378859323 %",1.15%
same,inhibition,"Thailand/16681/1984, Concentration 198.0 uM, Number of replicates 2.0, Standard deviation 0.3292768058509988 %",2.63%
CCS(=O)(=O)c1ccccc1C(=O)Nc1ccncc1C,inhibition,"Thailand/16681/1984, Concentration 49.5 uM, Number of replicates 2.0, Standard deviation 0.526238469836473 %",3.98%
same,inhibition,"Thailand/16681/1984, Concentration 99.01 uM, Number of replicates 2.0, Standard deviation 7.236859352566233 %",7.19%
same,inhibition,"Thailand/16681/1984, Concentration 198.0 uM, Number of replicates 2.0, Standard deviation 2.9244017365390755 %",4.24%
O=Cc1ccc(N2CCC(C(=O)NCc3c(F)cc(F)c(F)c3F)CC2)cc1,inhibition,[1],13.6%
Cc1cc(CO)c2cccc(NC(=O)c3cccc(Cn4cncn4)c3)c2n1,inhibition,"Thailand/16681/1984, Concentration 49.95 uM, Number of replicates 2.0, Standard deviation 2.3639363167890877 %",2.3%
same,inhibition,"Thailand/16681/1984, Concentration 99.9 uM, Number of replicates 2.0, Standard deviation 2.324751717378933 %",6.53%
COc1cc(COc2ccc(CO)cc2F)nc(N2CCNCC2)n1,inhibition,"Thailand/16681/1984, Concentration 49.5 uM, Number of replicates 2.0, Standard deviation 3.6186161339409284 %",-4.25%
same,inhibition,"Thailand/16681/1984, Concentration 99.01 uM, Number of replicates 2.0, Standard deviation 1.1962405142931818 %",-1.95%
same,inhibition,"Thailand/16681/1984, Concentration 198.0 uM, Number of replicates 2.0, Standard deviation 0.8125920400801586 %",-1.13%
C[C@@]1(CNC(=O)c2ccnc3[nH]cnc23)CCCN1C(=O)c1cc[nH]n1,inhibition,"Thailand/16681/1984, Concentration 49.5 uM, Number of replicates 2.0, Standard deviation 0.46118901462513606 %",0.303%
same,inhibition,"Thailand/16681/1984, Concentration 99.01 uM, Number of replicates 2.0, Standard deviation 0.21948477124230198 %",0.135%
same,inhibition,"Thailand/16681/1984, Concentration 198.0 uM, Number of replicates 2.0, Standard deviation 0.9711523827616293 %",0.225%
O=Cc1ccc(N2CCC(C(=O)NCc3ccccc3N3CCOCC3)CC2)cc1,inhibition,[1],11.4%
Cc1cc(CO)c2cccc(C[C@H](NC(=O)C[C@H]3CCCN3)C(=O)O)c2n1,inhibition,"Thailand/16681/1984, Concentration 49.95 uM, Number of replicates 2.0, Standard deviation 0.0013512279632592627 %",3.5%
same,inhibition,"Thailand/16681/1984, Concentration 99.9 uM, Number of replicates 2.0, Standard deviation 1.378906641613337 %",9%
c1ccc2c(CN3CCC(c4c[nH]c5ncccc45)CC3)ccnc2c1,inhibition,"Thailand/16681/1984, Concentration 49.5 uM, Number of replicates 2.0, Standard deviation 0.597215280015365 %",4.29%
same,inhibition,"Thailand/16681/1984, Concentration 99.01 uM, Number of replicates 2.0, Standard deviation 0.3164914750615221 %",6.39%
same,inhibition,"Thailand/16681/1984, Concentration 198.0 uM, Number of replicates 2.0, Standard deviation 1.585167923429043 %",5.45%
CC1(C)Cc2sc(NC(=O)Cc3ccc(S(N)(=O)=O)cc3)c(C#N)c2CN1CC1CCCCC1,inhibition,"Thailand/16681/1984, Concentration 49.5 uM, Number of replicates 2.0, Standard deviation 0.009484052439315419 %",8.25%
same,inhibition,"Thailand/16681/1984, Concentration 99.01 uM, Number of replicates 2.0, Standard deviation 0.7150155530159198 %",14.5%
same,inhibition,"Thailand/16681/1984, Concentration 198.0 uM, Number of replicates 2.0, Standard deviation 0.2762742778628508 %",23.9%
Cc1c(C(=O)NCCc2n[nH]c(=O)[nH]2)ccc(O)c1NC(=O)c1ccncc1F,inhibition,"Thailand/16681/1984, Concentration 49.5 uM, Number of replicates 2.0, Standard deviation 1.0172201525894917 %",-0.387%
same,inhibition,"Thailand/16681/1984, Concentration 99.01 uM, Number of replicates 2.0, Standard deviation 2.3283401843548477 %",-1.06%
same,inhibition,"Thailand/16681/1984, Concentration 198.0 uM, Number of replicates 2.0, Standard deviation 0.008708044664532838 %",2.8%
C[C@@H](c1ccccc1)N(Cc1ccncc1)C(=O)C1CCN(c2ccc(C=O)cc2)CC1,inhibition,[1],13.9%
COc1ccc([C@H](C)N(C)C(=O)C2CCN(c3ccc(C=O)cc3)CC2)cc1,inhibition,[1],15.9%
O=Cc1ccc(N2CCC(C(=O)N3CCC(O)(c4ccc(Br)cc4)CC3)CC2)cc1,inhibition,[1],14.6%
Nc1ccc(-c2cccc3c2CCB(O)O3)cn1,inhibition,"Thailand/16681/1984, Concentration 49.5 uM, Number of replicates 2.0, Standard deviation 1.624587027904312 %",0.39%
same,inhibition,"Thailand/16681/1984, Concentration 99.01 uM, Number of replicates 2.0, Standard deviation 2.612012013848058 %",1.77%
same,inhibition,"Thailand/16681/1984, Concentration 198.0 uM, Number of replicates 2.0, Standard deviation 2.3581154998349447 %",4.81%
Cc1cc(CO)c2cccc(Cc3ccccc3NC(=O)Cc3cccc(CN)c3)c2n1,inhibition,"Thailand/16681/1984, Concentration 49.95 uM, Number of replicates 2.0, Standard deviation 1.4858035354408357 %",-0.82%
same,inhibition,"Thailand/16681/1984, Concentration 99.9 uM, Number of replicates 2.0, Standard deviation 1.2081673980721888 %",5.26%
CCn1ccnc(N[C@@H](CO)Cc2c[nH]c3ccccc23)c1=O,inhibition,"Thailand/16681/1984, Concentration 49.5 uM, Number of replicates 2.0, Standard deviation 0.9468711829394424 %",-2.46%
same,inhibition,"Thailand/16681/1984, Concentration 99.01 uM, Number of replicates 2.0, Standard deviation 0.21359432769441944 %",-0.899%
same,inhibition,"Thailand/16681/1984, Concentration 198.0 uM, Number of replicates 2.0, Standard deviation 0.5745114470721225 %",3.07%
CCn1ccnc(N2CC[C@H](c3cccc(C#N)c3)C2)c1=O,inhibition,"Thailand/16681/1984, Concentration 50.0 uM, Number of replicates 2.0, Standard deviation 0.8963946841699463 %",7.12%
same,inhibition,"Thailand/16681/1984, Concentration 100.0 uM, Number of replicates 2.0, Standard deviation 1.1353241568538404 %",15.9%
same,inhibition,"Thailand/16681/1984, Concentration 200.0 uM, Number of replicates 2.0, Standard deviation 0.6166454829410692 %",29.2%
CNC(=O)c1cc(Cl)ccc1NS(=O)(=O)Cc1noc(C)n1,inhibition,"Thailand/16681/1984, Concentration 49.5 uM, Number of replicates 2.0, Standard deviation 0.1867091902041082 %",-5.82%
c1cnc2c(C3CCN(Cc4csc5ccccc45)CC3)c[nH]c2c1,inhibition,"Thailand/16681/1984, Concentration 49.5 uM, Number of replicates 2.0, Standard deviation 2.2496338528933 %",-1.06%
same,inhibition,"Thailand/16681/1984, Concentration 99.01 uM, Number of replicates 2.0, Standard deviation 3.116500412849666 %",0.66%
same,inhibition,"Thailand/16681/1984, Concentration 198.0 uM, Number of replicates 2.0, Standard deviation 2.658135185708288 %",-1.07%
Cc1ccc(NC(=O)C2CCN(c3ccc(C=O)cc3)CC2)cc1Br,inhibition,[1],8.71%
c1cnc2c(CN3CCC(c4c[nH]c5cccnc45)CC3)c[nH]c2c1,inhibition,"Thailand/16681/1984, Concentration 49.5 uM, Number of replicates 2.0, Standard deviation 2.401783006640112 %",-4.14%
same,inhibition,"Thailand/16681/1984, Concentration 99.01 uM, Number of replicates 2.0, Standard deviation 2.691377880268528 %",-3.47%
same,inhibition,"Thailand/16681/1984, Concentration 198.0 uM, Number of replicates 2.0, Standard deviation 2.989922552884535 %",-1.51%
N#Cc1cc(Cl)ccc1NC(=O)C1CCN(c2ccc(C=O)cc2)CC1,inhibition,[1],13.9%
CN(C(=O)C1CCN(c2ccc(C=O)cc2)CC1)[C@H]1CCN(Cc2ccccc2)C1,inhibition,[1],13.8%
Cc1ccccc1OC1CN(C(=O)C2CCN(c3ccc(C=O)cc3)CC2)C1,inhibition,[1],8.5%
O=C(c1cc2ccccc2[nH]1)N1CCC[C@H](c2c[nH]c3ncccc23)C1,inhibition,"Thailand/16681/1984, Concentration 49.5 uM, Number of replicates 2.0, Standard deviation 0.6846779142829902 %",3.74%
same,inhibition,"Thailand/16681/1984, Concentration 99.01 uM, Number of replicates 2.0, Standard deviation 0.6286192340156203 %",6.35%
same,inhibition,"Thailand/16681/1984, Concentration 198.0 uM, Number of replicates 2.0, Standard deviation 0.39513209958624096 %",4.86%
O=Cc1ccc(N2CCC(C(=O)Nc3ccn([C@H]4C[C@H](O)[C@@H](CO)O4)c(=O)n3)CC2)cc1,inhibition,[1],12%
CC(C)(CO)NC(=O)c1cc(Cl)cc(NC(=O)c2cc(Cc3ccccc3)c[nH]2)c1,inhibition,"Thailand/16681/1984, Concentration 49.5 uM, Number of replicates 2.0, Standard deviation 0.8087393545109293 %",4.06%
same,inhibition,"Thailand/16681/1984, Concentration 99.01 uM, Number of replicates 2.0, Standard deviation 0.3574046010228052 %",6.02%
same,inhibition,"Thailand/16681/1984, Concentration 198.0 uM, Number of replicates 2.0, Standard deviation 0.9223949064289227 %",9.8%
NCc1cccc(NC(=O)C2(NC(=O)OCc3ccccc3)CC2)c1,inhibition,"Thailand/16681/1984, Concentration 49.5 uM, Number of replicates 2.0, Standard deviation 1.7759278472435331 %",-2.62%
same,inhibition,"Thailand/16681/1984, Concentration 99.01 uM, Number of replicates 2.0, Standard deviation 1.0159093223805302 %",-3.21%
same,inhibition,"Thailand/16681/1984, Concentration 198.0 uM, Number of replicates 2.0, Standard deviation 1.1412237884146983 %",-2.7%
